Results reported in the supplement of paper PMC3334620.
In all, about 33,000 sequences were measured (“E-score (-0.5 to 0.5)”: median about -0.04, highest 2% from about 0.36 on). The list shows a part of the results.

These sequences were tested against T1, Hmlalpha2 (UniProt P0CY09) (assay: PBM E-score (8-mer binding enrichment) (E-score (-0.5 to 0.5)); higher = stronger / more preferred TF binding; most listed sequences are background and not binding sites). Settings: protein concentration: 200 nM; construct: GST-full length.
T1 sequence: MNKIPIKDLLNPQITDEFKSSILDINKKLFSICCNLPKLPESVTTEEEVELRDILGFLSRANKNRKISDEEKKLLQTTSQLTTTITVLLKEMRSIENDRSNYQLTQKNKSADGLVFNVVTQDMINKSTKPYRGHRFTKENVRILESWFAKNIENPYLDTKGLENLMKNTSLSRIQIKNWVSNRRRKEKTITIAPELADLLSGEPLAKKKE
How it was run: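 Full-length yeast transcription factors or their DNA-binding domains, GST-tagged and expressed with PURExpress, were applied at about 100-200 nM to universal all-10-mer Agilent arrays. These arrays had been made double-stranded by primer extension on fresh or once-stripped slides. Detection used fluorescent anti-GST, normalisation used masliner, and E-scores for ungapped eight-base words pooled with reverse complements came from the Universal PBM Analysis Suite.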

Sequence	PBM E-score
GGATGCCC	-0.234
ACCGAGCT	0.0168
CTAGGTAC	-0.0167
TCGTTGAA	0.1
ATAACTCC	-0.162
AAATCCTC	-0.126
AAGGTACA	0.0862
CGCTAAAG	-0.129
AAAAGTCA	-0.0146
CAAAGAGA	-0.11
ACTTGTGC	-0.205
AGATATGC	0.0358
CAGCAGAG	-0.278
AAGCGTCC	-0.0595
GCTGGCCC	-0.258
GATTCGCA	-0.136
CAATCATG	0.173
ACCATGCA	0.106
AGTTCTGG	-0.135
CAATCATC	-0.111
GCGAGACA	-0.00716
CTTCGCCA	0.00811
AAGCCCAC	-0.156
ACCGCCAT	-0.0716
ACGTCCCG	-0.187

Sequence	PBM E-score
CAAAATCG	-0.0871
GATAGGCC	-0.0107
GATTACCC	0.109
CCTAAGGC	-0.272
GACCCGAA	-0.325
AGCATTTA	0.0513
ACGCGTCC	0.105
CTGGCAGC	-0.236
AGACTTGC	-0.0754
CGGATCCC	-0.347
GTACTGAA	0.0605
ACAATGGC	0.0406
CTGGCCGA	-0.378
AGGAGGTG	-0.24
CGAGATCC	-0.173
ACAAGCTG	0.226
GCGTAGCC	0.00466
CATGGTCA	0.19
AAGCAGTA	-0.0861
CACCTAAA	-0.0345
ATCGAGAA	0.0444
GGCTAATA	-0.115
AGAAAGGG	0.0162
CAAGCGCG	-0.0446
GTCTTCTA	-0.0647

Sequence	PBM E-score
CGCTTTGC	0.0434
AGTCACGG	-0.171
AGGCGCAT	-0.0396
CTAATTCC	-0.0483
CACACGCC	0.154
ATTTAAAA	0.0606
ATTGTGAC	0.0491
GTCAAGAA	0.149
GGGACCTA	-0.236
CGCACACG	-0.0448
AGAGTCTA	-0.0235
CCCGGCAC	-0.324
CCCAAGTA	-0.0965
CTAGCAGA	-0.179
AATCAAGG	-0.191
GCAGTTTA	0.00455
CTGAGGGA	-0.299
GTACGCAA	0.155
GTGTCGGA	0.00114
GGAGTGAA	-0.0748
TCATTCAA	0.0446
AGGTGTTG	-0.053
TAGAAGCA	0.161
ACCGCACC	-0.137
AACCATAA	0.22

Sequence	PBM E-score
AGCACCGC	-0.218
AGCTGAAG	-0.154
CGAACCTC	-0.111
AACGGTGC	0.127
ACTGGGCC	-0.107
CCCAAACC	-0.233
CAATAATA	0.198
AAGTGGAA	0.0467
CAGCCTTA	-0.131
CATATGAC	0.137
ATATTCTC	0.00428
GAGTTACA	0.233
AGTGAAAC	-0.0209
GGGACACA	-0.179
CCCATATA	-0.213
CATTATGC	0.0946
CCCATCCG	-0.185
ATGCAAAA	0.263
GAGCCACC	-0.251
CATATAAA	0.101
TCTGAAAA	-0.0538
CGGATCTC	-0.176
CATCACCG	-0.081
CTCTCGGA	-0.116
CCTCGAAC	-0.227

Sequence	PBM E-score
GCACTTCA	0.0694
GTAAGCCA	-0.109
AAGCGGAA	0.00048
CATCATGC	0.0775
GACGCAAC	-0.0442
AAGTCCAT	-0.0919
ACAAGGTC	0.294
ATCCATCC	-0.175
ATTTCTTG	0.0963
CAACCCAC	-0.0634
AACCCAAT	-0.0481
CCCTGTAC	-0.0311
CCTCGTGA	-0.0308
AGCTAGTG	-0.133
GTTAAGAA	0.251
ATTCACGG	0.0201
AATGGACA	0.173
GCGGAGAA	-0.155
TGTTATAA	0.399
CGCAAGTA	0.239
CCGCTCGA	-0.208
AACCGAAC	-0.188
CCTGTCTA	-0.156
CGGTGAGC	-0.281
ATAGTGTC	-0.0275

Sequence	PBM E-score
CAACTCCC	-0.165
AAGTTCAC	0.0925
CGCTTCGC	-0.13
CCTGGCGC	-0.234
AGTTCACG	0.0891
CCGACAAA	-0.00265
CCGAGAAG	-0.244
CGGCTAGA	-0.196
ACCGGACA	-0.168
ACGTGGAC	0.0226
AGGAGTTG	0.121
CAAAGCCC	-0.218
AACCTTCA	0.143
AAGCATAT	0.0773
AACAAGGT	0.289
ATAAATTC	0.129
CCGCACTC	-0.259
AAGTCTAC	-0.177
CATGATCG	0.0573
CCACACCC	-0.108
GCCCCAGA	-0.328
CTGGTCAC	-0.055
CGCATATC	0.152
CAGGCTAC	-0.0724
TACTCCCA	0.126

Sequence	PBM E-score
CATAACTC	0.0153
CAGGCAAC	-0.114
AGCCTACC	-0.364
GCAATAAA	0.112
CGTGTCGA	0.363
AATATACG	0.0601
CGTACCGC	-0.0372
CAATTTGG	-0.0369
AACCGACA	0.104
ACACGGGA	0.371
GCTTGTCA	0.207
CTCCCACA	-0.216
CGGAATCA	-0.132
CACGTATG	0.229
GGCCTTCA	-0.219
AAATGGAG	0.0624
ACCACCCT	-0.275
CTATGGGC	-0.261
ATCGGCAC	-0.0287
CCCCGCGC	-0.154
GCCCGGGA	-0.166
AACACTTC	0.138
CCAAGTTC	-0.288
GTGTTCCA	0.0149
GCCGCTCA	-0.146

Sequence	PBM E-score
GTAAACTA	0.342
GCACCAGC	-0.266
CGGCCCTA	-0.26
CAACGAAA	0.129
ACGGGAGG	-0.239
GTTAATCA	0.342
TCTTACAA	0.229
ATTAGGAC	-0.174
AGTTGCGG	0.0364
AGCCGTGA	-0.0646
ACGCCCTA	-0.211
ACAGTTAA	0.112
GCACCAAA	-0.0557
ATCCAGAC	-0.24
AGAGGTGA	-0.0117
CTTAGTAC	0.0704
ATGGAACG	-0.132
AGTCAACG	0.0904
AGTTAATC	0.0967
GAAAACAC	0.345
ATCTGACG	-0.172
CGTATAAG	0.0227
ACGACAGC	0.124
CACCCTAG	-0.0696
CGATTAAG	0.169

Sequence	PBM E-score
AATAGATT	0.0509
ATAATGTG	0.213
ATCGCATG	0.253
AATGTGGC	-0.106
AAGATACT	-0.0425
ACCCTCAG	-0.264
GCGAGCGA	-0.242
ACCACGGG	-0.213
AATTTTAC	0.347
GTGTTATA	0.444
CCAAAAAG	0.0169
GTTGGGTA	-0.0225
CCCAAGGC	-0.19
GGAGGCTA	-0.325
ATAATCGC	0.00512
ACATTAAG	0.288
CCCGCCGA	-0.373
ACCGGTTA	-0.00528
CATAACCC	0.018
